Laboratory results: the supplement of paper PMC7125110
± gives the standard error. This sample is rich in variants without activity.

B1: glmS ribozyme (parent)
chain: AUAAAAGCGCCAGAACUACAGAAAUGUAGUUGACGAGGAGGAGGUUUAUCGAAUUUUCGGCGGAUGCCUCCAAA

Experiments:
Conditions in all cases: with glucosamine-6-phosphate
glucosamine-6-phosphate [1] = variants of: B1; experiment: self-cleavage kobs at 40 uM GlcN6P; higher = faster cleavage; RNA array
Procedure, shortened: (§1)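 On sequenced MiSeq chips, barcoded ribozyme variants were made in situ by E. coli RNA polymerase and followed at 37 °C through a hybridised Cy3 probe. Glucosamine-6-phosphate was flowed in at 40 μM to 10 mM in HEPES/KCl/Mg(OAc)2 buffer. Exponential fits to normalised per-tile medians gave kobs, and weighted Michaelis–Menten fits gave kcat and KM.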

glucosamine-6-phosphate [2] = variants of: B1; experiment: self-cleavage kobs at 640 uM GlcN6P; higher = faster cleavage; RNA array
Procedure, shortened: as §1

glucosamine-6-phosphate [3] = variants of: B1; experiment: self-cleavage kobs at 2500 uM GlcN6P; higher = faster cleavage; RNA array
Procedure, shortened: as §1

glucosamine-6-phosphate [4] = variants of: B1; experiment: self-cleavage kobs at 10000 uM GlcN6P; higher = faster cleavage; RNA array
Procedure, shortened: as §1

glucosamine-6-phosphate [5] = variants of: B1; experiment: self-cleavage kobs at 160 uM GlcN6P; higher = faster cleavage; RNA array
Procedure, shortened: as §1

Variant	self-cleavage kobs at 40 uM GlcN6P (glucosamine-6-phosphate [1])	self-cleavage kobs at 640 uM GlcN6P (glucosamine-6-phosphate [2])	self-cleavage kobs at 2500 uM GlcN6P (glucosamine-6-phosphate [3])	self-cleavage kobs at 10000 uM GlcN6P (glucosamine-6-phosphate [4])	self-cleavage kobs at 160 uM GlcN6P (glucosamine-6-phosphate [5])
G41C A48G	< 1e-05 s⁻¹	< 1e-05 s⁻¹	< 1e-05 s⁻¹	< 1e-05 s⁻¹	
G40C G60A C67U	< 1e-05 s⁻¹			< 1e-05 s⁻¹	
A39U A53C C68G	< 1e-05 s⁻¹				
G40A U54C	0.000248 ± 5.6e-05 s⁻¹	0.00211 ± 0.0003 s⁻¹	0.00449 ± 0.0013 s⁻¹	0.00467 ± 0.0012 s⁻¹	0.000724 ± 0.00016 s⁻¹
A39C A48U G59U	< 1e-05 s⁻¹			< 1e-05 s⁻¹	
G40C C68G	< 1e-05 s⁻¹		< 1e-05 s⁻¹	< 1e-05 s⁻¹	< 1e-05 s⁻¹
A39G A42C	< 1e-05 s⁻¹				
G38U C68G	6.28e-05 ± 1e-05 s⁻¹	0.000294 ± 4.2e-05 s⁻¹		0.000182 ± 4e-05 s⁻¹	0.000349 ± 0.00017 s⁻¹
G40U G59U	< 1e-05 s⁻¹				< 1e-05 s⁻¹
G38U U45A	< 1e-05 s⁻¹		< 1e-05 s⁻¹	< 1e-05 s⁻¹	
A39U A42G	0.000671 ± 0.00011 s⁻¹	0.0052 ± 0.0011 s⁻¹	0.0216 ± 0.0065 s⁻¹	0.019 ± 0.006 s⁻¹	0.00186 ± 0.00055 s⁻¹
G41C U56C	< 1e-05 s⁻¹				< 1e-05 s⁻¹
G40C U49C U57A	< 1e-05 s⁻¹				
G38C G41A	< 1e-05 s⁻¹	< 1e-05 s⁻¹	< 1e-05 s⁻¹		< 1e-05 s⁻¹
G40U U47A C70G	< 1e-05 s⁻¹				
G38C C61G	< 1e-05 s⁻¹	< 1e-05 s⁻¹	< 1e-05 s⁻¹		
G38C C61U	< 1e-05 s⁻¹	< 1e-05 s⁻¹			< 1e-05 s⁻¹
G38C G40C A64U	< 1e-05 s⁻¹			< 1e-05 s⁻¹	
G41C U55A	< 1e-05 s⁻¹		5.87e-05 ± 2e-05 s⁻¹	7.36e-05 ± 2e-05 s⁻¹	
A39G A53G	0.0015 ± 0.00022 s⁻¹	0.0194 ± 0.0037 s⁻¹	0.0404 ± 0.015 s⁻¹		0.00433 ± 0.00068 s⁻¹
A39C U69G	< 1e-05 s⁻¹	< 1e-05 s⁻¹		< 1e-05 s⁻¹	
G40A U45A	0.000251 ± 3.8e-05 s⁻¹	0.00157 ± 0.00029 s⁻¹	0.00221 ± 0.00084 s⁻¹	0.00427 ± 0.00099 s⁻¹	0.000585 ± 0.00027 s⁻¹
G40A U45G	5.96e-05 ± 1.5e-05 s⁻¹	0.000563 ± 0.00021 s⁻¹	0.000133 ± 4.2e-05 s⁻¹	0.000145 ± 3.5e-05 s⁻¹	

Variant	self-cleavage kobs at 40 uM GlcN6P (glucosamine-6-phosphate [1])	self-cleavage kobs at 640 uM GlcN6P (glucosamine-6-phosphate [2])	self-cleavage kobs at 2500 uM GlcN6P (glucosamine-6-phosphate [3])	self-cleavage kobs at 10000 uM GlcN6P (glucosamine-6-phosphate [4])	self-cleavage kobs at 160 uM GlcN6P (glucosamine-6-phosphate [5])
G38C A39C	< 1e-05 s⁻¹		< 1e-05 s⁻¹		< 1e-05 s⁻¹
G41C U47C C68U	< 1e-05 s⁻¹	< 1e-05 s⁻¹			
A39C C68A	< 1e-05 s⁻¹	< 1e-05 s⁻¹	< 1e-05 s⁻¹	< 1e-05 s⁻¹	< 1e-05 s⁻¹
G40A C70A	2.59e-05 ± 1.2e-05 s⁻¹	0.000163 ± 2.5e-05 s⁻¹	0.000235 ± 4.9e-05 s⁻¹	0.000217 ± 3.8e-05 s⁻¹	6.86e-05 ± 1.9e-05 s⁻¹
G40A U47A	0.000132 ± 2.1e-05 s⁻¹	0.00126 ± 0.00024 s⁻¹	0.0033 ± 0.00065 s⁻¹	0.00398 ± 0.00077 s⁻¹	
A39G U54A	0.00173 ± 0.00037 s⁻¹				
A39C U47G U57G G62C	< 1e-05 s⁻¹				
A39C G66C C68G	< 1e-05 s⁻¹			< 1e-05 s⁻¹	
A39U A48U C67G	< 1e-05 s⁻¹				
G41C G62U	< 1e-05 s⁻¹	< 1e-05 s⁻¹		< 1e-05 s⁻¹	
G38U U46A	< 1e-05 s⁻¹				
A39C A64U	< 1e-05 s⁻¹				< 1e-05 s⁻¹
G40A G60A U69A	< 1e-05 s⁻¹				
G40C G62A	< 1e-05 s⁻¹		< 1e-05 s⁻¹	< 1e-05 s⁻¹	< 1e-05 s⁻¹
G40C C58G	< 1e-05 s⁻¹	< 1e-05 s⁻¹	< 1e-05 s⁻¹		< 1e-05 s⁻¹
A39U C68U C71G	< 1e-05 s⁻¹			4.42e-05 ± 2e-05 s⁻¹	
G38A U65G	< 1e-05 s⁻¹	< 1e-05 s⁻¹		< 1e-05 s⁻¹	< 1e-05 s⁻¹
A39C G41C	< 1e-05 s⁻¹	< 1e-05 s⁻¹	< 1e-05 s⁻¹	< 1e-05 s⁻¹	< 1e-05 s⁻¹
A39G C68G	2.98e-05 ± 1.4e-05 s⁻¹	0.000165 ± 5e-05 s⁻¹	0.000286 ± 4.7e-05 s⁻¹		6.43e-05 ± 1.3e-05 s⁻¹
G40U U47C	3.24e-05 ± 8.9e-06 s⁻¹	0.000287 ± 3.6e-05 s⁻¹	0.000958 ± 0.00014 s⁻¹	0.00106 ± 0.00013 s⁻¹	0.000104 ± 2.3e-05 s⁻¹
G38U A42U U49A G60U	< 1e-05 s⁻¹			< 1e-05 s⁻¹	
A39G G51U C58G U65G	< 1e-05 s⁻¹			< 1e-05 s⁻¹	
